This passage reports GI50 and TGI results from PubChem BioAssay (NCI).

The test system of the test is NCI-H322M lung. Put plainly: NCI tumour cell line growth inhibition, 48 h.

Each structure is given as a SMILES string. Values joined by “and” are separate entries in the source; they are usually repeats but may differ in a detail not shown here. Equal values may be shown once.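 Cells were grown in 96-well plates and exposed to each compound for 48 hours at five concentrations; endpoints were interpolated linearly between bracketing concentrations, or set to the highest concentration if not reached. Abbreviation: GI50, concentration required for 50% inhibition of growth. TGI: total growth inhibition.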 Bounds are passed on as bounds.

On to `Cc1nn(C)c2cc(N(C)c3ccnc(Nc4cccc(S(N)(=O)=O)c4)n3)ccc12`, for which the GI50 was 7.89 µM and the TGI was above 25 µM.
The compound `CC1=CC(=O)/C(=C/n2c(=S)[nH]c3ccc([N+](=O)[O-])cc32)C(=O)O1` returned a TGI above 100 µM.
On the same count and under the same terms, to `CCN(CC)CCCNc1ncc(C)c2c1c1ccc3c(O)cccc3c1n2C` belongs 4.74 µM; to `Cc1ccc(C2SCC(=O)N2NC(=O)c2ccncc2)s1` (stereo not given), above 100 µM.
Take `C=C(CN)CO[Si](C)(C)C(C)(C)C`: the TGI was above 100 µM.
Still for that read-out and setting: to `CCOP(=O)(OCC)C(Nc1ccc(C(=O)O)cc1)c1ccc(C(Nc2ccc(C(=O)O)cc2)P(=O)(OCC)OCC)cc1` (stereo not given) belongs above 100 µM.
Turning to `O=C(NCCCCCCNC(=O)OCc1ccc2c(Cl)cc(Cl)c(O)c2n1)OCc1ccc2c(Cl)cc(Cl)c(O)c2n1`, the GI50 is 1.86 µM and the TGI is 4.49 µM.
As for `CCO/C=C(\C(=O)OC)S(=O)(=O)c1ccc(C)cc1`, the TGI was above 100 µM.
The same measure, in the same setting: to `O=S(=O)(O)C(Cc1nc2ccccc2[nH]1)S(=O)(=O)OCCC1S(=O)(=O)OCCOS1(=O)=O` (stereo not given) belongs above 100 µM; to `ClCCN(CCCl)c1ccc(CNCCCNCc2ccc(N(CCCl)CCCl)cc2)cc1`, above 100 µM; to `CCN(CC)CCCCC1CCN(CC(=O)N2c3cc(Cl)ccc3NC(=O)CC2C)CC1` (stereo not given), above 100 µM.
Turning to `COC(C)(C)[C@H](O)C(O)CC(C)[C@@H]1CCC23CC12CCC1[C@@]2(C)CCC(OC(C)=O)C(C)(C)C2CC(OC2OC(COC(C)=O)C(O)C(O)C2O)[C@]13C` (stereo not given in full), the GI50 was 3.17 µM; the TGI was 7.44 µM and 7.97 µM.
Take `Cc1ccc2c(c1)C=CC(C#N)N2C(=O)Oc1ccccc1` (stereo not given): the TGI was 58.3 µM.
Same read-out and setting: to `FC(F)(F)c1cccc(C2SCc3nc4ccccc4n32)c1` (stereo not given) belongs above 100 µM; to `O=C(O)c1ccc(NNC(=O)c2cccc3c(=O)c4ccccc4[nH]c23)cc1`, above 100 µM; to `O=Nc1c(NO)ccc2nn(-c3ccccc3)nc12`, above 100 µM.
Still for that read-out and setting: in the case of `COc1ccc2c(c1)CC[C@@H]1[C@@H]2CC[C@]2(C)C(=O)/C(=C/c3ccc(O)c(OC)c3)C[C@@H]12` it was above 100 µM.
Same read-out and setting: in the case of `C#CCCOC(=O)c1ccccc1OC(C)=O` it was above 100 µM; in that of `c1ccc2c(CNCCCCCCCCCCCCNCc3cccc4ccccc34)cccc2c1`, 3.3 µM; in that of `CC/C(SC)=[N+](\C)[O-]`, above 100 µM.
In the case of `Cc1ccc(/C=N/NS(=O)(=O)c2ccc(/C=C3\NC(=O)NC3=O)cc2)cc1`, the TGI is above 100 µM.
Compound `C=C(CN(C)C)C(=O)c1ccc(Oc2ccccc2)cc1` showed a TGI of 52.9 µM.
Same read-out and setting: to `C=CCC1C(=O)Nc2cccc3ncn(c23)C1=O` (stereo not given) belongs above 100 µM.
Compound `CCOC(=O)c1ccc(Nc2nc3cc(C(F)(F)F)ccc3nc2C(=O)OCC)cc1` came in with a TGI above 100 µM.
The same measure, in the same setting: to `OC(CC(O)(C(F)(F)F)C(F)(F)F)C(O)c1ccco1` (stereo not given) belongs above 10 µM.
`Nc1nc(-c2ccccc2)cc(-c2ccc(Cl)cc2)c1-c1nc2ccccc2o1`: the GI50 was 16.7 µM and the TGI is 31.5 µM.
For `Cc1ccc(C2=NN(c3ccc(S(N)(=O)=O)cc3)C(c3cn(-c4ccccc4)nc3-c3ccccc3)C2)cc1` (stereo not given), in that order: above 100 µM and above 100 µM.
For the compound `COc1ccc(C(c2cc3c(cc2O)OCO3)N2CCOCC2)cc1OC` (stereo not given), the TGI came out at 34.7 µM.
For `CN1CCN(CC(=O)N2c3cccc4cccc(c34)N(C(=O)CN3CCN(C)CC3)C2c2cn(-c3ccccc3)nc2-c2cccc([N+](=O)[O-])c2)CC1`, the GI50 is 2.01 µM and the TGI worked out at 4.5 µM.
For `O=C1OC(CS(=O)(=O)c2ccccc2)CC1O` (stereo not given), the TGI is above 100 µM.
As to `C[C@@H]1OCC2(CCN(c3cnc(Sc4ccnc(N)c4Cl)c(N)n3)CC2)[C@@H]1N`, the GI50 was 0.329 µM and the TGI was above 100 µM.
`Cn1c(=O)c2[nH]c(CCCCc3nc4c([nH]3)c(=O)n(C)c(=S)n4C)nc2n(C)c1=S` came in with a TGI above 100 µM.
On to `Cc1nc2sc(C(=O)Nc3cccc(Br)c3)c(N)c2cc1C(O)c1ccccc1` (stereo not given), for which the GI50 was 2.77 µM and the TGI amounted to 18.9 µM.
`O=C(C=Nc1ccccc1C(=O)[O-])c1cccs1.O=C(C=Nc1ccccc1C(=O)[O-])c1cccs1.[Zn+2]` returned a TGI of 46.3 µM.
Regarding `COc1cc(N2CCC(N3CCN(C)CC3)CC2)ccc1Nc1ncc(Cl)c(Nc2ccccc2S(=O)(=O)C(C)C)n1`, the GI50 is 1.33 µM and the TGI was found to be 11.5 µM.
Consider `O=C(Nc1ccc(Cl)cc1)NS(=O)(=O)c1c(-c2ccccc2)oc2ccccc2c1=O`, for which the TGI was above 100 µM.
Compound `CC1=C[C@@H]2[C@@H](CC(CO)=C[C@H]3[C@@H]4C(C)(C)[C@]4(OCC(C)C)[C@H](OCC(C)C)[C@@H](C)[C@]23O)C1=O` yielded a TGI above 8.32 µM.
Take `C=C1C(=O)O[C@H]2[C@H]1CC/C(COC(=O)NCc1cc(OC)cc(OC)c1)=C\CC[C@@]1(C)O[C@@H]21`: the GI50 was 4.72 µM and the TGI came to 17.8 µM.
For `COC(=O)c1ccc(NCC2=CC(=O)C=CC2=O)cc1`, the TGI is 31.6 µM.
Regarding `Oc1c(CN2CCN(c3ccccc3F)CC2)cc(Br)c2cccnc12`, the GI50 is 1.2 µM and the TGI was above 100 µM.
`CN1N=C2c3ccccc3CC[C@H]2C1c1cccc(O)c1` (stereo not given in full) returned a TGI above 100 µM.
Same read-out and setting: in the case of `O=C1C=C2CC[C@H]3[C@@H]4CC[C@H](OC(=O)c5cccc6cc7ccccc7nc56)[C@H]4CC[C@@H]3[C@H]2CC1` it was above 100 µM.
The same measure, in the same setting: to `CCOC(=O)Nn1c(C)cc(C(=O)OC)c1C` belongs above 100 µM.
Compound `COC1=CC(=O)C2C(C1=O)C(c1ccc(OC)c(OC)c1)[C@H]2C` (stereo not given in full) yielded a TGI above 100 µM.
Take `COc1ccc(C(SCC(N)C(=O)O)(c2ccc(OC)cc2)c2ccc(OC)cc2)cc1` (stereo not given): the TGI came to 24.8 µM.
In the case of `N#Cc1nn(-c2cc(=O)[nH]c3ccc(Br)cc23)c(N)c1C#N`, the GI50 was above 100 µM and the TGI was above 100 µM.
In the case of `COc1ccc(-n2sc3ncc([N+](=O)[O-])cc3c2=O)cc1`, the TGI is above 100 µM.
`O=c1[nH]c2cc([N+](=O)[O-])ccc2nc1/C=C(\O)c1ccc(Cl)cc1` came in with a TGI of 37.5 µM.
On the same count and under the same terms, to `COC(=O)C(=O)C(C(=O)OC)C(=O)C(=O)Nc1cc(Cl)c(Cl)cc1Cl` (stereo not given) belongs above 100 µM.
The compound `O=c1c2cc(S(=O)(=O)Nc3c(Cl)cccc3Cl)ccc2ncn1NS(=O)(=O)c1ccc2ccccc2c1` registered a TGI above 62.5 µM.
Turning to `CCOCCOC[C@H]1CCCN(c2ccnc3sc(C(N)=O)c(N)c23)C1`, the GI50 is above 100 µM and the TGI was above 100 µM.
Regarding `CNC(=O)Nc1ccccc1`, the TGI is above 100 µM.
As for `O=S(O)c1cc(Cl)cc(Cl)c1OCc1ccccc1`, the TGI was above 100 µM.
On to `O=[N+]([O-])c1cc2c(c([N+](=O)[O-])c1)Nc1ccccc1O2`, for which the GI50 was 12.5 µM and the TGI worked out at 54.4 µM.
Regarding `O=C1COCCN1C(=O)c1ccccc1Cl`, the TGI was above 100 µM.
Same read-out and setting: to `c1cc(NC2=NCCO2)c2c(c1)OCO2` belongs above 100 µM; to `COc1ccc(C2=NN(C(=O)c3cccnc3)C(O)(c3cc(F)c(Cl)cc3Cl)C2)cc1OC` (stereo not given), above 100 µM.
On to `CCCCCCNCCCNc1c2ccccc2nc2cccc([N+](=O)[O-])c12`, for which the GI50 was 0.0132 µM; the TGI is 0.0479 µM and 0.236 µM.
Turning to `CC#CC(=O)N1CC[C@@H](n2c(=O)n(-c3ccc(Oc4ccccc4)cc3)c3c(N)ncnc32)C1`, the GI50 is 18.2 µM and the TGI was above 100 µM.
Taken in the same sequence, the figures for `COc1ccc(C2CC(=O)c3c(O)c(OC)c(OC)c(OC)c3O2)cc1O` (stereo not given) were 3.22 µM and above 100 µM.
Turning to `O=S(=O)(Nc1ccccn1)c1ccc(N=Nc2ccc(O)c3ncccc23)cc1`, the GI50 is 1.76 µM and the TGI stood at 8.84 µM.
In the case of `CCOC(=O)N1C=CC(=C2C(=C3C=CN(C(=O)OCC)C=C3)C(=C3C=CN(C(=O)OCC)C=C3)C2=C2C=CN(C(=O)OCC)C=C2)C=C1`, the TGI stood at 69.6 µM.
Still for that read-out and setting: to `Cn1c(=O)c2c(nc(NCCNc3nc4c(c(=O)n(C)c(=O)n4C)n3C)n2C)n(C)c1=O` belongs above 100 µM.
For `CCN(CC)CC[n+]1cc2cc(OC)c(OC)cc2c2ccc3cc4c(cc3c21)OCO4`, the GI50 is 0.447 µM and the TGI turned out to be 2.12 µM.
For `CCCN1C(=O)CNC(=O)c2[nH]cnc21`, the TGI was above 100 µM.
As to `c1ccc2c3c(ccc2c1)-c1c(ccc2c(NCCCCN4CCCCC4)cccc12)C3`, the TGI is 2.89 µM.
The same measure, in the same setting: to `O=C(O)C1=NN(c2ccc(S(=O)(=O)O)cc2)C2(C1)SCC(=O)N2c1nc2ccccc2s1` (stereo not given) belongs above 100 µM.
The same measure, in the same setting: in the case of `CCOC(=O)c1cc(Br)c(-c2onc(C)c2Br)n1C` it was above 100 µM; in that of `CSC1(CC(=O)N2CCCCC2)C(=O)Nc2ccccc21` (stereo not given), above 100 µM.
For the compound `COC(=O)[C@@H]1OC(C)(c2ccccc2)O[C@H]1C(=O)OC`, the TGI was above 100 µM.
Still for that read-out and setting: in the case of `Cn1c(=O)cc(N2CCCC2)[nH]c1=O` it was above 100 µM.
For `CC(=O)[O][Bi]([c]1ccccc1)[c]1ccccc1`, the GI50 was 16.2 µM and the TGI amounted to 29.9 µM.
On to `Nc1ncnc2c1ncn2C1OC(COC2C(CO)OC(OC(C(=O)O)C(O)C(OP(=O)(O)O)C(O)C(=O)O)C(O)C2O)C(O)C1O` (stereo not given), for which the TGI is above 100 µM.
Still for that read-out and setting: in the case of `CCCc1c(C(=O)OCC)[nH]c(C(=O)CCC(=O)c2[nH]c(C(=O)OCC)c(CCC)c2C(=O)OCC)c1C(=O)OCC` it was above 100 µM; in that of `CC(=O)CCC[C@H](C)[C@@H](O)[C@@H]1O[C@H]([C@@]2(C)CCC(=O)O2)C[C@H]1C(=O)O`, above 100 µM.
Same read-out and setting: in the case of `COC(=O)C1=C(C)N(NC(N)=O)C(C)(O)C12CCOC2=O` (stereo not given) it was above 100 µM; in that of `CCOC(=O)c1cc2cc(C)cc(C(=O)c3ccc([N+](=O)[O-])cc3)c2[nH]1`, above 100 µM; in that of `Cc1nnc2n1N=C(c1cc(F)c(Cl)cc1Cl)/C(=C/c1ccc3c(c1)OCO3)S2`, above 100 µM.
As for `CC(C)(C)c1cc(-c2nc3c(F)c(F)c(F)c(F)c3[nH]2)cc(C(C)(C)C)c1O`, the GI50 is above 100 µM and the TGI was above 100 µM.
Consider `CCOC(=O)c1ccc(N=c2oc3ccc(OC)cc3cc2-c2nc3ccccc3[nH]2)cc1`, for which the TGI was above 100 µM.
On the same count and under the same terms, in the case of `O=C(COc1ccc(Cl)cc1Cl)N/N=C/C=C/c1ccc([N+](=O)[O-])o1` it was above 100 µM.
The same measure, in the same setting: in the case of `O=C(O)[C@@H](NS(=O)(=O)c1ccc([N+](=O)[O-])cc1)c1ccccc1` it was above 100 µM.
In the case of `CCN1CCN(c2ccc(Nc3ncc4ccc5ncn(C(C)C)c5c4n3)nc2)CC1`, the GI50 is 0.079 µM and the TGI came out at 1.45 µM.
